# Measured values from publication PMC9911399, “Two distinct binding modes provide the RNA-binding protein RbFox with extraordinary sequence specificity”.
# Changes are numbered by the printed parent chain; changes in the protein carry UniProt numbers. The list shows a part of the results.
# T1: RBFOX1 RRM (Homo sapiens, UniProt Q9NWB1 109-208)
# T1 sequence: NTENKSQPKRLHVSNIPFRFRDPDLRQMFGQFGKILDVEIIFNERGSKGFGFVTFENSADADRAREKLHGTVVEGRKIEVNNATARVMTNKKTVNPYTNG
# B1: UGUACCG (DNA:RNA)
# RNA: GGGAGACCGGAAUUCAGAUUGUCCUGUACCGUUAAAUCCCGUCGUAGCCACCA
# DNA 1: CAATCTGAATTCCGGTCTCCC
# DNA 2: TGGTGGCTACGACGGGATT
# B2: GAUACUC (DNA:RNA)
# RNA: B1 RNA with U25G, G26A, C30U, G31C
# DNA 1: CAATCTGAATTCCGGTCTCCC
# DNA 2: TGGTGGCTACGACGGGATT
# B3: UAGUCCA (DNA:RNA)
# RNA: B1 RNA with G26A, U27G, A28U, G31A
# DNA 1: CAATCTGAATTCCGGTCTCCC
# DNA 2: TGGTGGCTACGACGGGATT
# B4: AUAAGCG (DNA:RNA)
# RNA: B1 RNA with U25A, G26U, U27A, C29G
# DNA 1: CAATCTGAATTCCGGTCTCCC
# DNA 2: TGGTGGCTACGACGGGATT
# B5: AUGCUAU (DNA:RNA)
# RNA: GGGAGACCGGAAUUCAGAUUGUCCAUGCUAUUUAAAUCCCGUCGUAGCCACCA
# DNA 1: CAATCTGAATTCCGGTCTCCC
# DNA 2: TGGTGGCTACGACGGGATT
# B6: CGUGCUU (DNA:RNA)
# RNA: B1 RNA with U25C, A28G, C30U, G31U
# DNA 1: CAATCTGAATTCCGGTCTCCC
# DNA 2: TGGTGGCTACGACGGGATT
# B7: GGGGGAC (DNA:RNA)
# RNA: B5 RNA with A25G, U26G, C28G, U29G, U31C
# DNA 1: CAATCTGAATTCCGGTCTCCC
# DNA 2: TGGTGGCTACGACGGGATT
# B8: GGAGCAC (DNA:RNA)
# RNA: B1 RNA with U25G, U27A, A28G, C30A, G31C
# DNA 1: CAATCTGAATTCCGGTCTCCC
# DNA 2: TGGTGGCTACGACGGGATT
# B9: UCCGUGG (DNA:RNA)
# RNA: B1 RNA with G26C, U27C, A28G, C29U, C30G
# DNA 1: CAATCTGAATTCCGGTCTCCC
# DNA 2: TGGTGGCTACGACGGGATT
# Target: T1, RBFOX1 RRM
# Experiment: EMSA; HiTS-Eq, 1 nM pool, 10 min; buffer printed only for the single-RNA assays: 10 mM Tris pH 7.5, 150 mM NaCl, 3.4 mM EDTA, 0.001% NP-40, 30 C
# Conditions: tags: His6 N-terminal (pET28a); label: 5' 32P
# Procedure, shortened: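 Purified RbFox RRM (wild type or mutant) was equilibrated for 10 min in 50 µL with 1 nM of a 5′-radiolabelled pool of RNA with 7 randomized nucleotides, its flanks annealed to DNA oligonucleotides, across increasing protein concentrations. Free RNA was separated by 8% native PAGE, excised, reverse-transcribed, PCR-barcoded and sequenced on an Illumina HiSeq 2500. Relative association constants came from read-count changes of each variant against the control reaction, normalised to the cognate motif.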
row,Binder,binding signal
1,B1,0.00825 KA relative to UGCAUGU
2,B2,0.0126 KA relative to UGCAUGU
3,B3,0.00652 KA relative to UGCAUGU
4,B4,0.00479 KA relative to UGCAUGU
5,B5,0.00716 KA relative to UGCAUGU
6,B6,0.0157 KA relative to UGCAUGU
7,B7,0.0152 KA relative to UGCAUGU
8,B8,0.0157 KA relative to UGCAUGU
9,B9,0.00932 KA relative to UGCAUGU
